# Data reported in paper PMC4242493.
# This is one part of the list. The list includes weakly bound sequences.
# Molecular target: MaxL homodimer (UniProt P61244)
# Experiment: universal protein-binding microarray (PBM)
# Conditions: PBS-based mixture, 10 nM His-tagged protein dimer, 2% milk, 200 ng/uL BSA, 50 ng/uL salmon testes DNA, 0.02% TX-100; detection with Alexa 488 anti-His …; high values mean tight binding; most listed sequences are background and not binding sites; double strand, one strand shown
# UniProt P61244, sequence (P61244 whole entry): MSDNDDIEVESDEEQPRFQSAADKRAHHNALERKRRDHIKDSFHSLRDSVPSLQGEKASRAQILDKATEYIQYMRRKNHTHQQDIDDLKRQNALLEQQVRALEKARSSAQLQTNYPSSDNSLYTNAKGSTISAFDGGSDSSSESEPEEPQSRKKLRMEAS
row,Sequence,binding signal (normalized occupancy)
1,GTGCGGAA,0.0783
2,ACAGTTTA,0.0711
3,GACTCGTA,0.0733
4,ATGGCAAG,0.0757
5,AAATAGGA,0.0746
6,GGGAATTA,0.0803
7,GCTAACGA,0.0715
8,ACGCTAAT,0.0757
9,CCTCCATC,0.0784
10,ATGCCCTG,0.0757
11,CCGGGGTC,0.0728
12,GATTAGGA,0.077
13,ACCCTTGA,0.0737
14,CGGCCGGC,0.0636
15,AAGGTGCG,0.077
16,ACCCGTAC,0.0817
17,ACCACATG,0.192
18,ATTAGATG,0.0818
19,ACGACAGC,0.0773
20,ACATCACC,0.0798
21,CGAGAGAG,0.0753
22,AATCCGAG,0.0705
23,ACCGCACC,0.0777
24,CTGCAGGA,0.074
25,CGCGCAAC,0.0771

row,Sequence,binding signal (normalized occupancy)
1,CACTGAAA,0.0741
2,GTGTGTTA,0.0835
3,GCAAGTCC,0.0669
4,CGATTAAC,0.0792
5,CCGCGTAC,0.0726
6,GACTCCCC,0.0728
7,CCGATACC,0.0708
8,AGGCTGAG,0.0754
9,CGTACGGA,0.0708
10,ACCCGCCT,0.0747
11,AAAACCTA,0.0773
12,CCCGCCAA,0.0699
13,GGGGAGGA,0.0791
14,TCGCTGCA,0.0715
15,ATTGCTCA,0.0734
16,CTCAAGAG,0.0706
17,AGGATGGA,0.0772
18,AGACGGGG,0.0728
19,AGCGTCGG,0.0689
20,AGCAAATA,0.0781
21,CAGATATC,0.0778
22,AAAAATGC,0.0718
23,GCGAAGTA,0.0661
24,CCTAAGGA,0.0757
25,ATCGCGCG,0.0715

row,Sequence,binding signal (normalized occupancy)
1,AGGGTATG,0.0841
2,TCTATTCA,0.0828
3,CCGTATGA,0.0792
4,AGTGGACG,0.0683
5,AAGGACGG,0.0706
6,CGAGCTGA,0.0699
7,ATTTGTCG,0.0732
8,CGTCTATC,0.078
9,TCCCAGCA,0.0721
10,CGAGGGAC,0.0711
11,CCATGACG,0.0756
12,CAGGACTA,0.0709
13,CATGACAG,0.0835
14,ACCGCGGG,0.0694
15,AAGTAGTA,0.0794
16,ATTGCGCA,0.075
17,GTTAGGGA,0.076
18,CTAGGAGC,0.0687
19,AACGCGAG,0.0764
20,CACCGCCG,0.0703
21,ATAGGTAA,0.0773
22,CAACAAGA,0.0766
23,AAGGAACT,0.0712
24,AATGCACC,0.0777
25,CGAAATGC,0.0839

row,Sequence,binding signal (normalized occupancy)
1,AGATTCTG,0.0733
2,ATTTTCCC,0.0783
3,ATCCATTG,0.0801
4,ACCTTTCT,0.0739
5,AGTCAACG,0.0774
6,GTACGCTA,0.0796
7,CCAAAACG,0.0713
8,AGCGTGGG,0.113
9,CCTAAGAG,0.0723
10,ATCTTTGG,0.0739
11,ACATATCG,0.0783
12,CCATTCAC,0.078
13,CGGTTTGA,0.0701
14,GCAGTTTA,0.0714
15,AATCGGCG,0.0688
16,GAGCCCTC,0.0682
17,CACTGTGG,0.0743
18,ACCGCGAT,0.0768
19,AGGGCTAG,0.0711
20,CTATCTAA,0.0749
21,ACGAGAGA,0.0774
22,CAGGTACG,0.0729
23,ATCTAGCA,0.0824
24,CGTTGGAG,0.0748
25,CCGAAGCA,0.0764

row,Sequence,binding signal (normalized occupancy)
1,CGAAAACG,0.0706
2,AACGTCAG,0.0741
3,CTAACACA,0.0861
4,AGGCGCAG,0.0694
5,CCGCAACG,0.0686
6,ATAGGTAC,0.0727
7,CTGAGACA,0.0717
8,CACAAACG,0.071
9,ACAGCGTC,0.0731
10,AAGTAATG,0.0807
11,ATCCCGCC,0.0737
12,AACAGTGC,0.0741
13,AGTCCCAC,0.0735
14,AGGGGGGG,0.0816
15,CAACCCCC,0.0821
16,GAACTGAC,0.0729
17,ATATAACA,0.0809
18,CAATACTG,0.0785
19,AGCCAAAC,0.0733
20,AAGACTAA,0.0733
21,TATTCTGA,0.0768
22,ACTCTCGC,0.0742
23,GAGCCATC,0.074
24,CGTCGCAA,0.0721
25,ATCCAATG,0.0815

row,Sequence,binding signal (normalized occupancy)
1,CCGCTTGA,0.0686
2,GGGCAAAA,0.0701
3,AAACCGCA,0.0705
4,CCGGTATC,0.0749
5,ACGTCCGG,0.069
6,AAATATTC,0.078
7,ATCTCGCC,0.0718
8,AGGTCTTA,0.0761
9,TAATATAA,0.0786
10,AAATAGGG,0.0797
11,GGAAGTAC,0.0676
12,AAATACGT,0.0822
13,ACTATTCA,0.0755
14,AGCCAAAT,0.0727
15,CTCGGTGA,0.07
16,GCGGCGTA,0.0764
17,TATCATGA,0.0886
18,AAGTAATC,0.0762
19,GATATGCA,0.0792
20,GCTCTTAC,0.0729
21,CTGGCGCA,0.0709
22,CGGGGTGA,0.0807
23,AGCGTCAA,0.0731
24,CGCAGCTC,0.0702
25,CTAGCTGA,0.0713

row,Sequence,binding signal (normalized occupancy)
1,TACCGGAA,0.071
2,TGGATCAA,0.0767
3,GAGACACA,0.0755
4,AGTCGTGC,0.0781
5,CCCTTGAC,0.0761
6,TTATGGAA,0.0819
7,TCGTTAGA,0.071
8,ACGCAGAA,0.0781
9,ATGACGGA,0.0754
10,ACGTGCCA,0.115
11,GGATGGCC,0.0707
12,CGGTTTCA,0.0706
13,CCTGGTCA,0.0741
14,CACCTCGC,0.0819
15,CAACTGCG,0.0686
16,CCGCCCCC,0.08
17,ATCGGCAA,0.0694
18,CTCCTCGA,0.0663
19,CACAGCGA,0.0757
20,TAGTCATA,0.0824
21,TCGCACCA,0.0775
22,CCTACAGA,0.0729
23,GTCCCTGA,0.0756
24,AAAGAAAC,0.0773
25,CACGCATG,0.121

row,Sequence,binding signal (normalized occupancy)
1,CCCATCCC,0.0829
2,CTAGGGGC,0.0728
3,AGCCTCTA,0.0774
4,CCACTCGA,0.0783
5,CCAGTAGG,0.0666
6,AATATCAA,0.0785
7,ACTGCCGA,0.0686
8,AGCTGCTG,0.0719
9,CAAAATGA,0.0772
10,GACAGATA,0.081
11,ATGGGAGC,0.0768
12,CCAAGGTA,0.0695
13,ACATCTGC,0.0921
14,AGCTGGAC,0.0725
15,CTTTCTAC,0.0754
16,AGGTCGAC,0.0753
17,ATCCGGGC,0.0696
18,CGCGGTAA,0.0728
19,AACAGCTC,0.0698
20,AATGACCA,0.0772
21,ACATTCGC,0.0767
22,CCACATTA,0.093
23,AATTTGAG,0.075
24,GGACATCA,0.0726
25,CGTCCTGC,0.0753

row,Sequence,binding signal (normalized occupancy)
1,GCCGATAA,0.0734
2,GCAGCCCC,0.0717
3,ACACCGCC,0.071
4,CCAAGGAA,0.0727
5,GCAGGATA,0.0731
6,GTATCGTA,0.0791
7,CAGGTATG,0.0849
8,ACCCGATA,0.0766
9,GATTCTCC,0.0726
10,ATCCCAGG,0.077
11,GAGGGATA,0.0809
12,CACCGGTG,0.0754
13,CGTGTTAG,0.0934
14,ATTAGCCC,0.0735
15,GTCAAAAC,0.0673
16,ACTCTAAA,0.0713
17,ACCGGTTC,0.0691
18,AGGTGGTC,0.0855
19,AATTCGGG,0.0773
20,CCCCGACC,0.0749
21,ACAGCTTA,0.0769
22,GCCTAGCC,0.0731
23,GCTTGAAC,0.0762
24,CGCCACAA,0.076
25,CATGTGCC,0.149

row,Sequence,binding signal (normalized occupancy)
1,GGACACAA,0.0793
2,AGTCCTCA,0.0699
3,TCCGCGCA,0.0729
4,ACCGAACC,0.0715
5,CCACCGAG,0.0749
6,GAATTATA,0.0789
7,ATAAAGAA,0.0757
8,ACGGGAAC,0.074
9,AACCTAGG,0.0678
10,GAAGGTCC,0.0714
11,CAAGAGCG,0.0762
12,CTTCACAA,0.0737
13,AACTGTGA,0.0737
14,CCGTGCTA,0.0812
15,ACGCCAGT,0.0714
16,CCCTCGGA,0.0687
17,GGGGCAGA,0.0791
18,CAGTCGAC,0.0692
19,CTAGTCAG,0.07
20,AGACTTGG,0.0722
21,AGCACGTA,0.0853
22,GGGACTTA,0.0709
23,TATTGGCA,0.083
24,CTAGGGCC,0.07
25,CACACGCC,0.0955

row,Sequence,binding signal (normalized occupancy)
1,ATTATTAC,0.0856
2,AGCTCTGA,0.0756
3,TAATATGA,0.0855
4,AGAAATTG,0.072
5,CCGCATTA,0.0798
6,AGCCGACG,0.0709
7,CGTAGACA,0.0736
8,AAGCTAAA,0.0675
9,CACCAGCG,0.0755
10,ACTATGAC,0.0781
11,GAGACGCC,0.0686
12,AAGGAATA,0.0719
13,ATATCAAT,0.0804
14,ATGTCTTC,0.0804
15,CCAATCTC,0.0826
16,CTCTGAGC,0.0688
17,ACAGTCGG,0.0709
18,GAAAGACC,0.066
19,CCCGAACA,0.0756
20,GTTTCTAA,0.0721
21,ATACCCTA,0.0808
22,CGTTTGGC,0.0688
23,GAGACCTC,0.0737
24,CTGCCATA,0.0828
25,GCAGTAGC,0.0723

row,Sequence,binding signal (normalized occupancy)
1,GGTCCGTA,0.07
2,ATGGTGAG,0.0835
3,AAAGCTGC,0.0725
4,AGAGGCAA,0.0735
5,CAACGGAG,0.0708
6,AGAGAGCC,0.071
7,GCTCCCTA,0.0743
8,ATGAATTG,0.0772
9,TGATATAA,0.0803
10,TCGGGTAA,0.0763
11,ATTAGTTC,0.0751
12,ACGGACAG,0.0742
13,CCACTCCA,0.0796
14,GACGGGCA,0.0718
15,CCTGGGCG,0.0708
16,ATTAGCTC,0.0696
17,ACCGGTTG,0.0686
18,TGCAACCA,0.0739
19,CAGATATG,0.0757
20,CCCTAACC,0.0758
21,AGCGAGCC,0.0665
22,GGACTGGA,0.0745
23,CGGAATAG,0.0763
24,TGCAAAAA,0.0771
25,CTGCCACC,0.078

row,Sequence,binding signal (normalized occupancy)
1,GGCCCTAC,0.0696
2,ATCTGGCG,0.0737
3,CGCAAGAA,0.0699
4,CGGGCGAG,0.0699
5,CCGCATGC,0.128
6,CTAATCCC,0.0815
7,ACTCTTAT,0.0803
8,ACTAAAGC,0.073
9,CGGTGCCC,0.0712
10,CGAGACAC,0.0816
11,GTATTAGA,0.0813
12,ACCGTGCG,0.0828
13,AACGGTCT,0.075
14,CCTGGTGA,0.0734
15,CAGACAAC,0.0742
16,AGTTACAC,0.0745
17,TAACAAGA,0.0747
18,AGCGGACG,0.0671
19,TGCTAGCA,0.0864
20,CATACCTC,0.0806
21,CACAAAAA,0.0719
22,CGGAATCA,0.0809
23,TATTGTAA,0.0817
24,AAAGTTTG,0.0746
25,ACCGTGCC,0.0756

row,Sequence,binding signal (normalized occupancy)
1,ACCCCAGC,0.0789
2,AGGCGCCA,0.0691
3,TAAATTAA,0.073
4,AATTAAAC,0.0734
5,CTGCTACA,0.0765
6,ACGGTAGT,0.073
7,GAAGCTCA,0.0681
8,GACTGGAA,0.0726
9,GAAAGAAA,0.0716
10,GCCAAAGA,0.0684
11,GCCATTCC,0.0759
12,TCCTCCGA,0.0717
13,ACGTATGG,0.0832
14,CTCTCAAC,0.0722
15,TAAATCTA,0.0719
16,ACGAAAAC,0.0745
17,GCACGAAA,0.078
18,TCCCCGCA,0.076
19,AGGAGTGG,0.0793
